{"source": "PubChem BioAssay (NCI)", "experiment_in_all_cases": "NCI anticancer screen, dose series, 48 h", "key": {"[1]": {"tested_on": "T-47D breast"}, "[2]": {"tested_on": "NCI-H522 lung"}, "[3]": {"tested_on": "OVCAR-3 ovarian"}, "[4]": {"tested_on": "SR leukemia"}, "[5]": {"tested_on": "BT-549 breast"}, "[6]": {"tested_on": "NCI-H23 lung"}, "[7]": {"tested_on": "SF-539 CNS"}, "[8]": {"tested_on": "SN12C renal"}, "[9]": {"tested_on": "HOP-92 NSCLC"}, "[10]": {"tested_on": "RPMI-8226 leukemia"}, "[11]": {"tested_on": "SK-MEL-5 melanoma"}, "[12]": {"tested_on": "MOLT-4 leukemia"}, "[13]": {"tested_on": "A498 renal"}, "[14]": {"tested_on": "PC-3 prostate"}, "[15]": {"tested_on": "SF-295 CNS"}, "[16]": {"tested_on": "HCT-15 colon"}, "[17]": {"tested_on": "HCT-116 colon"}, "[18]": {"tested_on": "DU-145 prostate"}, "[19]": {"tested_on": "IGROV1 ovarian"}, "[20]": {"tested_on": "HT29 colon"}, "[21]": {"tested_on": "UO-31 renal"}, "[22]": {"tested_on": "KM12 colon"}, "[23]": {"tested_on": "SK-MEL-2 melanoma"}, "[24]": {"tested_on": "EKVX NSCLC"}, "[25]": {"tested_on": "SK-MEL-28 melanoma"}, "[26]": {"tested_on": "HOP-62 NSCLC"}, "[27]": {"tested_on": "HCC-2998 colon"}, "[28]": {"tested_on": "TK-10 renal"}, "[29]": {"tested_on": "MCF7 breast"}, "[30]": {"tested_on": "UACC-62 melanoma"}, "[31]": {"tested_on": "786-0 renal"}, "[32]": {"tested_on": "OVCAR-5 ovarian"}, "[33]": {"tested_on": "M14 melanoma"}, "[34]": {"tested_on": "SK-OV-3 ovarian"}, "[35]": {"tested_on": "SF-268 CNS"}, "[36]": {"tested_on": "ACHN renal"}, "[37]": {"tested_on": "A549 NSCLC"}, "[38]": {"tested_on": "LOX IMVI melanoma"}, "[39]": {"tested_on": "CAKI-1 renal"}, "[40]": {"tested_on": "DMS 114 small cell lung"}, "[41]": {"tested_on": "HL-60(TB) leukemia"}, "[42]": {"tested_on": "DMS 273 small cell lung"}, "[43]": {"tested_on": "K-562 leukemia"}, "[44]": {"tested_on": "MDA-N"}, "[45]": {"tested_on": "NCI-H226 lung"}}, "note": "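All cell lines were grown in 96-well plates and treated with compound for 48 hours. GI50: concentration for 50% inhibition of growth.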 Some entries of the source have several records that differ or are many. This is not the full list of results. An entry can have further records. For some of these results: Records of one sample usually come from different ranges of test concentrations, which the source does not state; a value can be the end of its range. For some of these results: Values given together are repeated measurements in other runs, samples, wells, individuals or studies. Records carry a tag for their origin. The letters are not those of the source and start again with each entry.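 The concentration for full growth arrest is given as TGI.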", "data": [{"smiles": "C=C1C(=O)O[C@H]2C3OC3(C)CC/C=C(/C(=O)OC)[C@@H](OC(C)=O)[C@H](OC(=O)C3(C)OC3C)[C@H]12", "note": "(stereo partly specified)", "values": [{"measurement": "TGI", "setting": "[1]", "value": "2.93 µM and 32.3 µM"}]}, {"smiles": "CC[C@H](C)[C@H](NC(=O)[C@H]1CCCCN1C)C(=O)N(C)[C@H](C[C@@H](OC(C)=O)c1nc(C(=O)NC23C4C5C2C2C3C4C52C(=O)OC)cs1)C(C)C", "note": "(stereo partly specified)", "values": [{"measurement": "TGI", "setting": "[2]", "value": "42.8 nM and < 2.5 nM"}, {"measurement": "TGI", "setting": "[3]", "value": "45.1 nM and < 2.5 nM"}, {"measurement": "GI50", "setting": "[4]", "value": "0.159 nM and 2.5 nM"}]}, {"smiles": "CC(=O)OC1(C)CC(C)C(=O)C(C(O)CC2CC(=O)NC(=O)C2)C1", "note": "(stereo unspecified)", "values": [{"measurement": "TGI", "setting": "[5]", "value": "426 nM and 14.4 µM"}, {"measurement": "TGI", "setting": "[6]", "value": "699 nM and 27.8 nM"}, {"measurement": "TGI", "setting": "[7]", "value": "871 nM and 37.8 nM"}, {"measurement": "TGI", "setting": "[8]", "value": "830 nM and 19.6 nM"}]}, {"smiles": "CC(=O)OCC1OC([S-])C(OC(C)=O)C(OC(C)=O)C1OC(C)=O.[Au+].c1ccc(CN2[CH-]N(Cc3ccccc3)C(c3ccccc3)=C2c2ccccc2)cc1", "values": [{"measurement": "GI50", "setting": "[9]", "value": "1.81 µM [sample A, 1 test] and 127 nM [sample B, mean of 2 tests]"}, {"measurement": "GI50", "setting": "[10]", "value": "2.53 µM [sample A, 1 test] and 219 nM [sample B, mean of 2 tests]"}, {"measurement": "TGI", "setting": "[11]", "value": "17.4 µM [sample A, 1 test] and 1.72 µM [sample B, mean of 2 tests]"}, {"measurement": "TGI", "setting": "[12]", "value": "> 100 µM [sample A, 1 test] and 6.87 µM [sample B, mean of 2 tests]"}, {"measurement": "GI50", "setting": "[13]", "value": "7.74 µM [sample A, 1 test] and 240 nM [sample B, mean of 2 tests]"}, {"measurement": "TGI", "setting": "[13]", "value": "20.4 µM [sample A, 1 test] and 1.11 µM [sample B, mean of 2 tests]"}, {"measurement": "GI50", "setting": "[14]", "value": "2.1 µM [sample A, 1 test] and 201 nM [sample B, mean of 2 tests]"}, {"measurement": "GI50", "setting": "[15]", "value": "6.12 µM [sample A, 1 test] and 223 nM [sample B, mean of 2 tests]"}, {"measurement": "GI50", "setting": "[8]", "value": "2.06 µM [sample A, 1 test] and 193 nM [sample B, mean of 2 tests]"}]}, {"smiles": "CCOC(=O)Nc1cc2c(c(N)n1)N=C(c1ccccc1)CN2", "values": [{"measurement": "TGI", "setting": "[16]", "value": "1.59 nM and 24.7 µM"}, {"measurement": "TGI", "setting": "[17]", "value": "10.5 nM and 12.2 µM"}, {"measurement": "TGI", "setting": "[6]", "value": "142 nM and > 32.3 µM"}, {"measurement": "TGI", "setting": "[18]", "value": "27.5 nM and 14.6 µM"}, {"measurement": "TGI", "setting": "[19]", "value": "0.926 nM and 984 nM"}, {"measurement": "TGI", "setting": "[20]", "value": "< 0.1 nM and 28.8 nM"}, {"measurement": "TGI", "setting": "[21]", "value": "226 nM and 10.8 µM"}]}, {"smiles": "COc1ccc(C2CC(c3ccc4ccccc4c3)=NN2c2nc(O)c(C3=c4cc(Cl)ccc4=NC3=O)s2)cc1", "note": "(stereo unspecified)", "values": [{"measurement": "TGI", "setting": "[22]", "value": "58.4 nM and < 5 nM"}, {"measurement": "TGI", "setting": "[23]", "value": "75.2 nM and < 5 nM"}, {"measurement": "TGI", "setting": "[24]", "value": "131 nM and < 5 nM"}, {"measurement": "TGI", "setting": "[25]", "value": "77.6 nM and < 5 nM"}, {"measurement": "TGI", "setting": "[26]", "value": "57.5 nM and < 5 nM"}, {"measurement": "TGI", "setting": "[9]", "value": "50.1 nM and < 5 nM"}, {"measurement": "TGI", "setting": "[27]", "value": "51.3 nM and < 5 nM"}, {"measurement": "TGI", "setting": "[5]", "value": "583 nM and < 5 nM"}, {"measurement": "TGI", "setting": "[28]", "value": "55.2 nM and < 5 nM"}, {"measurement": "TGI", "setting": "[29]", "value": "224 nM and < 5 nM"}, {"measurement": "TGI", "setting": "[30]", "value": "117 nM and < 5 nM"}, {"measurement": "TGI", "setting": "[1]", "value": "54.4 nM and < 5 nM"}, {"measurement": "TGI", "setting": "[31]", "value": "58.3 nM and < 5 nM"}, {"measurement": "TGI", "setting": "[32]", "value": "116 nM and < 5 nM"}, {"measurement": "TGI", "setting": "[12]", "value": "325 nM and < 5 nM"}, {"measurement": "TGI", "setting": "[33]", "value": "137 nM and < 5 nM"}, {"measurement": "TGI", "setting": "[34]", "value": "51.5 nM and < 5 nM"}, {"measurement": "TGI", "setting": "[35]", "value": "89.5 nM and < 5 nM"}, {"measurement": "TGI", "setting": "[36]", "value": "71.7 nM and < 5 nM"}, {"measurement": "TGI", "setting": "[37]", "value": "71.1 nM and < 5 nM"}, {"measurement": "TGI", "setting": "[38]", "value": "54.1 nM and < 5 nM"}, {"measurement": "TGI", "setting": "[6]", "value": "60.3 nM and < 5 nM"}, {"measurement": "TGI", "setting": "[14]", "value": "93.7 nM and < 5 nM"}, {"measurement": "TGI", "setting": "[39]", "value": "223 nM and 50 µM"}, {"measurement": "TGI", "setting": "[8]", "value": "75.3 nM and < 5 nM"}]}, {"smiles": "NCCNc1ccc(NCCN)c2c1C(=O)c1c(O)ccc(O)c1C2=O", "values": [{"measurement": "TGI", "setting": "[40]", "value": "2.27 nM and 159 nM"}, {"measurement": "TGI", "setting": "[41]", "value": "4.73 µM and < 25.5 nM"}, {"measurement": "TGI", "setting": "[42]", "value": "1.79 nM and 269 nM"}, {"measurement": "TGI", "setting": "[34]", "value": "1.41 µM and 80.1 nM"}, {"measurement": "GI50", "setting": "[43]", "value": "390 nM and 10.2 nM"}]}, {"smiles": "O=C1NC(c2cccc3ccccc23)Nc2ccccc21", "note": "(stereo unspecified)", "values": [{"measurement": "GI50", "setting": "[44]", "value": "2.12 nM and 21.8 nM"}, {"measurement": "TGI", "setting": "[17]", "value": "929 nM and 9.53 µM"}, {"measurement": "TGI", "setting": "[11]", "value": "109 nM and 2.1 µM"}, {"measurement": "TGI", "setting": "[12]", "value": "451 nM and > 43.9 µM"}, {"measurement": "TGI", "setting": "[45]", "value": "83.9 nM and 1.72 µM"}, {"measurement": "TGI", "setting": "[43]", "value": "142 nM and > 59.7 µM"}, {"measurement": "TGI", "setting": "[4]", "value": "45 nM and 1.39 µM"}]}]}
